Assay results reported in a collection of fitness landscapes (doi:10.1126/science.1257360).
The list shows a part of the results.

B1: PhoQ; a variant is named by its letters at X, in order, P23837 (parent)
chain: MKKLLRLFFPLSLRVRFLLATAAVVLVLSLAYGMVALIGYSVSFDKTTFRLLRGESNLFYTLAKWENNKLHVELPENIDKQSPTMTLIYDENGQLLWAQRDVPWLMKMIQPDWLKSNGFHEIEADVNDTSLLLSGDHSIQQQLQEVREDDDDAEMTHSVAVNVYPATSRMPKLTIVVVDTIPVELKSSYMVWSWFIYVLSANLLLVIPLLWVAAWWSLRPIEALAKEVRELEEHNRELLNPATTRELTSLVRNLNRLLKSERERYDKYRTTLTDLTHSLKTPLXXLQXXLRSLRSEKMSVSDAEPVMLEQISRISQQIGYYLHRASMRGGTLLSRELHPVAPLLDNLTSALNKVYQRKGVNISLDISPEISFVGEQNDFVEVMGNVLDNACKYCLEFVEISARQTDEHLYIVVEDDGPGIPLSKREVIFDRGQRVDTLRPGQGVGLAVAREITEQYEGKIVAGESMLGGARMEVIFGRQHSAPKDE

Variants of: B1
Assay: enrichment ratio after two sorts for PhoP signalling (ratio (wild type AVST 3.29)); higher = more functional
Conditions: with PhoP (E. coli)

| Variant | enrichment ratio |
| --- | --- |
| GPYT | ≤ 0.25 |
| QMGT | ≤ 0.25 |
| QMNL | 3.36 |
| YNAV | ≤ 0.25 |
| TANH | ≤ 0.25 |
| ILCQ | ≤ 0.25 |
| DVKA | ≤ 0.25 |
| VQYI | ≤ 0.25 |
| CSHL | ≤ 0.25 |
| RGCG | ≤ 0.25 |
| VQVD | ≤ 0.25 |
| FHRW | ≤ 0.25 |
| PNDI | ≤ 0.25 |
| IHHP | ≤ 0.25 |
| LAMH | ≤ 0.25 |
| SLAG | 7.42 |
| DVFY | ≤ 0.25 |
| GFAW | ≤ 0.25 |
| PEHG | ≤ 0.25 |
| CIHT | ≤ 0.25 |
| TARM | ≤ 0.25 |
| PFHF | ≤ 0.25 |
| EEID | ≤ 0.25 |
| REVA | ≤ 0.25 |
| IADE | ≤ 0.25 |

| Variant | enrichment ratio |
| --- | --- |
| HGLE | ≤ 0.25 |
| LTQE | ≤ 0.25 |
| RQEP | ≤ 0.25 |
| KNQP | ≤ 0.25 |
| HDIF | ≤ 0.25 |
| FVVL | 0.591 |
| NVVF | ≤ 0.25 |
| ACTE | 0.76 |
| ADTF | ≤ 0.25 |
| LCFV | ≤ 0.25 |
| LCSG | ≤ 0.25 |
| MHIY | ≤ 0.25 |
| VVAT | ≤ 0.25 |
| GCDQ | ≤ 0.25 |
| PIGC | ≤ 0.25 |
| TEIY | 0.671 |
| EMWS | ≤ 0.25 |
| SSGL | 8.55 |
| PHAY | ≤ 0.25 |
| APIK | ≤ 0.25 |
| KHWK | ≤ 0.25 |
| SGWK | ≤ 0.25 |
| DHQH | ≤ 0.25 |
| VQCA | ≤ 0.25 |
| WGHN | ≤ 0.25 |

| Variant | enrichment ratio |
| --- | --- |
| WSRV | ≤ 0.25 |
| GLTQ | ≤ 0.25 |
| SNEY | ≤ 0.25 |
| HTFW | ≤ 0.25 |
| WRRS | ≤ 0.25 |
| QHYN | ≤ 0.25 |
| AARI | ≤ 0.25 |
| RWQN | ≤ 0.25 |
| TLNC | ≤ 0.25 |
| RIRT | ≤ 0.25 |
| VGGW | ≤ 0.25 |
| KPGP | ≤ 0.25 |
| TPFD | ≤ 0.25 |
| IWDN | ≤ 0.25 |
| HACW | ≤ 0.25 |
| WLSV | ≤ 0.25 |
| VAYE | ≤ 0.25 |
| AYGR | ≤ 0.25 |
| GNNS | ≤ 0.25 |
| GRHD | ≤ 0.25 |
| DKCA | ≤ 0.25 |
| EEHF | ≤ 0.25 |
| WFTA | ≤ 0.25 |
| FRQA | ≤ 0.25 |
| ELRK | ≤ 0.25 |

| Variant | enrichment ratio |
| --- | --- |
| KFRS | ≤ 0.25 |
| KLMY | ≤ 0.25 |
| YKGL | ≤ 0.25 |
| VFKS | ≤ 0.25 |
| PWPY | ≤ 0.25 |
| AYCT | ≤ 0.25 |
| SNQQ | 2.29 |
| QQSP | ≤ 0.25 |
| RIPN | ≤ 0.25 |
| WCYD | ≤ 0.25 |
| MPEG | ≤ 0.25 |
| QMVG | ≤ 0.25 |
| LSDL | ≤ 0.25 |
| DYGI | ≤ 0.25 |
| NCIH | ≤ 0.25 |
| MKRS | ≤ 0.25 |
| AVEF | ≤ 0.25 |
| HPTS | ≤ 0.25 |
| FAYA | ≤ 0.25 |
| KEIM | ≤ 0.25 |
| ALQN | ≤ 0.25 |
| WTAK | ≤ 0.25 |
| THHN | ≤ 0.25 |
| LKRM | ≤ 0.25 |
| APHS | ≤ 0.25 |

| Variant | enrichment ratio |
| --- | --- |
| TFIR | ≤ 0.25 |
| YCMQ | ≤ 0.25 |
| GNHV | ≤ 0.25 |
| IWPE | ≤ 0.25 |
| HEMI | 12.7 |
| DFMS | ≤ 0.25 |
| DCTM | ≤ 0.25 |
| QRGR | ≤ 0.25 |
| SMVF | 3.83 |
| FMGN | ≤ 0.25 |
| NLCI | ≤ 0.25 |
| DDIS | ≤ 0.25 |
| IERC | ≤ 0.25 |
| TPAL | ≤ 0.25 |
| TFPA | ≤ 0.25 |
| VNDF | ≤ 0.25 |
| DNSR | ≤ 0.25 |
| AWIY | ≤ 0.25 |
| MRTL | ≤ 0.25 |
| VAII | ≤ 0.25 |
| TGLG | 10.1 |
| AFNA | ≤ 0.25 |
| NPWH | ≤ 0.25 |
| SAIG | 7.02 |
| GSGC | ≤ 0.25 |

| Variant | enrichment ratio |
| --- | --- |
| LVRV | ≤ 0.25 |
| WSKW | ≤ 0.25 |
| KIFH | ≤ 0.25 |
| SLSV | 7.73 |
| ICIQ | ≤ 0.25 |
| ECFI | ≤ 0.25 |
| LADK | ≤ 0.25 |
| VCYE | ≤ 0.25 |
| ITDF | ≤ 0.25 |
| NPIR | ≤ 0.25 |
| PEVM | ≤ 0.25 |
| RDSA | ≤ 0.25 |
| MLAV | 5.83 |
| YPFP | ≤ 0.25 |
| PSCS | ≤ 0.25 |
| EMQY | ≤ 0.25 |
| EESG | ≤ 0.25 |
| YNDR | ≤ 0.25 |
| EMFG | ≤ 0.25 |
| RDPM | ≤ 0.25 |
| RIAF | ≤ 0.25 |
| QELM | ≤ 0.25 |
| SPLR | ≤ 0.25 |
| MAMW | ≤ 0.25 |
| PNDV | ≤ 0.25 |

| Variant | enrichment ratio |
| --- | --- |
| IMWT | ≤ 0.25 |
| WPGP | ≤ 0.25 |
| SVVP | ≤ 0.25 |
| GQST | ≤ 0.25 |
| WFRL | ≤ 0.25 |
| DMLP | ≤ 0.25 |
| LPLQ | ≤ 0.25 |
| RAGI | ≤ 0.25 |
| TNGV | 6.83 |
| HWQG | ≤ 0.25 |
| GSSH | ≤ 0.25 |
| VWKN | ≤ 0.25 |
| QNRL | ≤ 0.25 |
| YRSD | ≤ 0.25 |
| DFPK | ≤ 0.25 |
| DQSA | ≤ 0.25 |
| KNCW | ≤ 0.25 |
| QHNC | 3.29 |
| TAVN | 1.13 |
| WETM | ≤ 0.25 |
| SWEM | ≤ 0.25 |
| FDDV | ≤ 0.25 |
| HFSV | ≤ 0.25 |
| YDLE | ≤ 0.25 |
| ISQP | ≤ 0.25 |

| Variant | enrichment ratio |
| --- | --- |
| IKHS | ≤ 0.25 |
| NKFG | ≤ 0.25 |
| TNLN | 7.21 |
| FIEH | ≤ 0.25 |
| VCMF | 3.34 |
| TQVC | 14.3 |
| SVQG | ≤ 0.25 |
| ISEA | ≤ 0.25 |
| DSKV | ≤ 0.25 |
| LEGI | ≤ 0.25 |
| TDNQ | 2.4 |
| HRIL | ≤ 0.25 |
| IDPT | ≤ 0.25 |
| TSQQ | 4.72 |
| LWND | ≤ 0.25 |
| YTMM | 11.8 |
| WPST | ≤ 0.25 |
| PQWP | ≤ 0.25 |
| TRDG | ≤ 0.25 |
| IYHT | ≤ 0.25 |
